Source: PubChem BioAssay AID1030 (National Center for Advancing Translational Sciences (NCATS), 2008)
“And” between values parts separate entries of the source, which are not always exact repeats. Equal values may be shown once. Among all 220,000 compounds or so, about 16,000 (7.3%) were called active. The inconclusive results got no clear call from the source; some entries with a clear call stand among them for comparison. Calls follow the shape of the dose curve; as a rule, active = well fitted inhibition curve with a large enough effect (not every such curve was filed as active); inconclusive = small, poorly fitted or top-dose-only effect, or another doubt; inactive = no such curve, though single readings can be large or run the other way. Potencies of inconclusive entries are doubtful fits and often do not repeat.

Biological target: Aldehyde dehydrogenase 1A1 (Homo sapiens) (UniProt P00352)
Chain of UniProt P00352 (P00352 whole entry, looked up): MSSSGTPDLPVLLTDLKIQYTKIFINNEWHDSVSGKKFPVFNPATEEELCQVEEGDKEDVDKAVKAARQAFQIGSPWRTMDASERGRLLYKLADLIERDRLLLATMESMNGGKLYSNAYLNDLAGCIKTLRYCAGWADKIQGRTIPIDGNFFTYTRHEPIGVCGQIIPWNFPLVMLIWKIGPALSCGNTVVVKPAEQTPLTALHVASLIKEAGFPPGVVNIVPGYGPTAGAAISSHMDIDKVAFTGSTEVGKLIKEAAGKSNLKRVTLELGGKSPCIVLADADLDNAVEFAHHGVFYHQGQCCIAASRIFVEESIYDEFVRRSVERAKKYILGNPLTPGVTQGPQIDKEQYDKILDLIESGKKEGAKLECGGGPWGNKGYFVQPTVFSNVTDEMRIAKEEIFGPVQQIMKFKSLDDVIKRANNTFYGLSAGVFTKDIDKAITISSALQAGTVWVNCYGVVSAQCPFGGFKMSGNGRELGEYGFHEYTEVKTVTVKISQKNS
Experiment: qHTS Assay for Inhibitors of Aldehyde Dehydrogenase 1 (ALDH1A1);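 as to activity, negative = inhibition: plate controls were no enzyme wells and a reference inhibitor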
Settings: Purified ALDH1A1, NADH fluorescence, propionaldehyde substrate; series mostly up to 75.3 µM; activity, negative = inhibition: at the top concentration
Potency is read from the fitted curve at half-maximal effect; tags tell the direction and shape of the fitted curve.

Potency, inconclusive:
CC(C)OC(=O)CC1C(=O)NCCN1C(=S)NC(=O)c1cccs1 (centres undefined) 35.5 µM [inhibitor, single point]
O=C(/C=C/c1ccccc1)Nc1nnc(SCC(=O)c2ccc3ccccc3c2)s1 28.2 µM [inhibitor, partial curve]
Cc1ccc(-c2cc3ccccc3nc2N2CCOCC2)cc1 39.8 µM [inhibitor, single point]
CC(C)CN(CC(C)C)S(=O)(=O)N1CCC(C(=O)N2CCc3ccccc3C2)CC1 35.5 µM [inhibitor, single point]
Nc1nnc(CC(=O)N/N=C/c2cc([N+](=O)[O-])cc(Br)c2O)s1 39.8 µM [inhibitor, single point]
O=C(CCCn1c(SCc2ccccc2F)nc2ccccc2c1=O)NCC1CCCO1 (centres undefined) 2.24 µM [inhibitor, partial curve]
COC(=O)Cc1c(C)c2cc(Cl)c(OC(=O)c3ccco3)cc2oc1=O 3.16 µM [inhibitor, full curve]
Cc1ccn2c(=O)c(C(=O)O)cnc2c1 35.5 µM [inhibitor, partial curve]
O=C1Nc2ccccc2C1=Nc1ccc(S(=O)(=O)Nc2nccs2)cc1 25.1 µM [inhibitor, single point] and 2.51 µM [inhibitor, partial curve]
CN(C)C(=S)Nc1ccc(Br)cc1Cl 39.8 µM [inhibitor, single point]
Cc1ccc(NC(=O)CCS(=O)(=O)c2ccccc2)cc1S(=O)(=O)N1CCOCC1 39.8 µM [inhibitor, single point]
O=C(CCCn1c(=O)c2ccccc2n(Cc2cccc(F)c2)c1=O)NC1CCN(Cc2ccccc2)CC1 39.8 µM [inhibitor, single point]
CC1CCc2nc(/C(C#N)=C/c3ccncc3)sc2C1 (centres undefined) 28.2 µM [inhibitor, partial curve]
O=C1NC(=O)C2C1C(c1ccccc1)N1C3C(=O)NC(=O)C3C(c3ccccc3)N21 (centres undefined) 25.1 µM [inhibitor, single point]
CC1CCN(C(=O)CSc2nnc(CNc3ccc(F)cc3)n2Cc2ccco2)CC1 12.6 µM [inhibitor, partial curve]
Cc1cc(C)c2cc(CNC3CCCC3)c(Cl)nc2c1 35.5 µM [inhibitor, single point]
CCC(C)NC(=S)Nc1ccc2nc(N3CCN(CC)CC3)cc(C)c2c1 (centres undefined) 39.8 µM [inhibitor, single point]
O=C(c1ccc(COc2c(F)c(F)cc(F)c2F)o1)N1CCN(c2ccc(Cl)cc2)CC1 25.1 µM [inhibitor, single point]
C=CCOC(=O)C1=C(C)NC(SCC(=O)Nc2nccs2)=C(C#N)C1c1ccc(Cl)cc1 (centres undefined) 20 µM [inhibitor, partial curve]
CCOc1cc(N2CCOCC2)c(OCC)cc1NC(=O)CSc1cccc[n+]1[O-] 39.8 µM [inhibitor, single point]
O=C(CC1(O)C(=O)Nc2ccccc21)c1ccc(-n2cccc2)cc1 (centres undefined) 39.8 µM [inhibitor, single point]
O=C1c2ccccc2NC(c2cccc(F)c2)N1Cc1ccco1 (centres undefined) 31.6 µM [inhibitor, partial curve]
COCCCn1c(=NC(=O)c2ccc3c(c2)OCO3)c(C#N)cc2c(=O)n3cccc(C)c3nc21 28.2 µM [inhibitor, partial curve]
CCOC(=O)CN(c1ccccn1)S(=O)(=O)c1ccc(OC)cc1 35.5 µM [inhibitor, partial curve]
COc1ccc(NC(=S)NNC(=O)c2cccs2)cc1 39.8 µM [inhibitor, single point]
CC(C)Cn1c(N)c(C(=O)COC(=O)c2cc(-c3ccco3)nc3ccccc23)c(=O)n(C)c1=O 10 µM [inhibitor, partial curve]
OC(COc1ccc(Cl)c2ccccc12)CN1CCN(c2ccccn2)CC1 (centres undefined) 39.8 µM [inhibitor, single point]
Cc1nc2ccc3nc(NC(=O)c4ccc(S(=O)(=O)N5CCOCC5)cc4)sc3c2s1 8.91 µM [inhibitor, single point]
CC1CCCC(C)N1C(=O)CSc1nc2ccccc2c(=O)[nH]1 (centres undefined) 39.8 µM [inhibitor, single point]
COc1ccc(C(c2nnnn2C2CCCC2)N2CCc3ccccc3C2)cc1OC (centres undefined) 39.8 µM [inhibitor, single point]
COC(=O)c1ccccc1NC(=O)C1COc2ccccc2O1 (centres undefined) 22.4 µM [inhibitor, partial curve]
Cc1cccn2c(=O)c3cc(C(=O)NC4CCS(=O)(=O)C4)sc3nc12 (centres undefined) 14.1 µM [inhibitor, partial curve]
Cc1cc(=O)oc2ccc(OC(=O)CN3C(=O)c4cccc([N+](=O)[O-])c4C3=O)cc12 28.2 µM [inhibitor, single point]
Clc1ccccc1-c1nnc2sc(-c3ccc(Br)o3)nn12 35.5 µM [inhibitor, single point]
NC(=S)Cc1nc2n(n1)Cc1ccccc1-2 39.8 µM [inhibitor, single point]
Cc1ccccc1C(=O)NC1CCN(Cc2nnnn2Cc2ccc(F)cc2)CC1 39.8 µM [inhibitor, single point]
Cc1cccc(N2CCCn3c2nc2c3c(=O)n(CC(=O)OCc3ccccc3)c(=O)n2C)c1 31.6 µM [inhibitor, single point]
CN1CCN(c2ncc3ncc(=O)n(Cc4ccc(F)cc4)c3n2)CC1 31.6 µM [inhibitor, partial curve]
O=C(NC1CCCCC1)N(Cc1cc2cc3c(cc2[nH]c1=O)OCCO3)CC1CCCO1 (centres undefined) 28.2 µM [inhibitor, partial curve]
O=c1nc(-c2ccccc2)cc(C(F)(F)F)[nH]1 39.8 µM [inhibitor, partial curve]

Potency, active:
Cc1nc(SCC(O)CCl)c([N+](=O)[O-])[nH]1 (centres undefined) 14.1 µM
CC1(C)CC(=O)c2cc3c(nc2C1)CC(C)(C)CC3=O 7.08 µM
Cc1ccc2c(c1)c(N=NC(N)=S)c(O)n2Cc1ccccc1 0.631 µM
NNc1nc2cccnc2n(CCNc2ncc(C(F)(F)F)cc2Cl)c1=O 1.58 µM
O=C(NN=C1C2CC3CC1CC(Cl)(C3)C2)c1cccs1 3.16 µM
CCCCCCC#CC1C=CC(OC(=O)OCC)C(COC(=O)OCC)O1 (centres undefined) 3.98 µM
O=C1CC(Sc2ncn[nH]2)C(=O)N1c1ccccc1 (centres undefined) 1.12 µM
CCOC(=O)/C=C/C(=O)Nc1ccc(Oc2ccccc2)cc1 25.1 µM

Potency, inactive:
CCc1cc2c(nc1CC)CCN(CC/C(C)=N/OC[C@H]1O[C@H](c3ccccc3)C=C[C@@H]1Oc1ccc(OC)cc1)C2

activity, negative = inhibition, inactive:
COCCNC(=O)Cn1cnc2sc(C)c(S(=O)(=O)N3CCC(C)CC3)c2c1=O -11.7%
C=CCN(C)CCCNC(=O)/C=N/O 7.4%
CCOc1ccc(C(CC(=O)O)n2cnnn2)cc1 (centres undefined) 5.43%
C/C(=N/NC(=O)c1ccoc1C)c1ccc(NC(=O)C2CCCC2)cc1 -7.33%
O=C(NCc1ccco1)C(=S)N1CCCC1 0.0675%
CN1CCN(c2nc(-c3ccco3)cc(C(F)(F)F)n2)CC1 -2.85%
CCNc1nc(NCC)n2c(SC(C(=O)Nc3cc(Cl)cc(Cl)c3)c3ccccc3)nnc2n1 (centres undefined) 10%
CN1CCN(S(=O)(=O)c2ccc(NC(=O)C3CCCO3)cc2)CC1 (centres undefined) -9.73%
COc1ccc(-c2cn(-c3ccc(C)cc3)c(=O)n2CC(=O)Nc2cccc(F)c2)cc1 -10.4%
CSc1ccc(CNc2ccc(Cl)cc2)cc1 -11.3%
O=C(O)c1cnn2c(-c3ccc(F)cc3)ccnc12 -5.48%
CC(=O)c1c(C)[nH]c(C(=O)NCc2ccccn2)c1C 2.93%
CN(c1ccc(C(=O)Nc2ccccc2C(=O)N2CCOCC2)cc1)S(C)(=O)=O 19.1%
CN(C)/C=C/C(=O)c1cnc2sccn2c1=O 6.38%
O=C(c1ccc(CN2CCc3ccccc3C2)cc1)N1CCc2ccccc2C1 -11.6%
Cc1cccc(N2C(=O)CSC2c2cccnc2)c1 (centres undefined) -12.2%
CCn1ncc(/C=N/NC(=O)c2cc(Cl)ccc2OC)c1C 9.97%
Oc1c(-c2cc(-c3ccco3)[nH]n2)ccc2ccccc12 -3.77%
CCOC(=O)N1CCN(C(=O)CN(c2ccccc2)S(C)(=O)=O)CC1 11.8%
CC(=O)OC1CSC2c3ccccc3C(=O)N2Cc2sccc21 (centres undefined) -2.78%
C=CCN1CCN(C(c2ccc(OC)c(OC)c2)c2nnnn2C(C)(C)C)CC1 (centres undefined) 2.02%
CC(c1ccccc1)N1CC(C(=O)N2CCN(c3ccc(F)cc3)CC2)CC1=O (centres undefined) -3.05%
O=c1[nH]c2ccccc2nc1/C=C/c1ccc(Cl)cc1 -1.08%
O=C(CCc1nnc(-c2ccccc2)o1)c1ccc(Cl)cc1 9.44%
CC(C)(C)c1ccc(OCC(O)CN(CCO)CC(O)Cn2ccc3ccccc32)cc1 (centres undefined) 5.16%
